The chains are these.
T1: UNK ZnF1-3 (human, UniProt Q9C0B0 31-174)
T1 sequence: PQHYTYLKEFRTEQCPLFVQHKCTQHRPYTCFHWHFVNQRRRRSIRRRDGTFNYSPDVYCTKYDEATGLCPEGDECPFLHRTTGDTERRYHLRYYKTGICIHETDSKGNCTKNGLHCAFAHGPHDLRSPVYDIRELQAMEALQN

B1: chr6:40426449:40426450:+_ENSMUSG00000029911_ENSMUST00000121360|perfect_dup|motif|central (ssRNA)
RNA: GGGAGUUCUACAGUCCGACGAUCAACGUCACCCAUUUGGUAUACUUCACUAUCCCCUGAUCGCCACAUCUCAUUUGUUGCGGGAGAAAAUAUUGUGACUGGGUUUUUUCCUUCCACCUGUCUCAUGACAGGGUCCUGACCUACCAACAGAGGAUUGAGCAUCA
B2: chr2:153237265:153237266:-_ENSMUSG00000061411_ENSMUST00000109784|mus_mus|mus_mus_mus_hu_False|58_98 (ssRNA)
RNA: GGGAGUUCUACAGUCCGACGAUCAAAAAAAAAAAAAGAAAAGUGUCCUUGUGCCCAAAGUCUCAGGUGCUUGGAGUGCAGCUAGAAACAGCUCUUUUGGAUCCCACCUCUUUCAAAAACAAAAUGUACCAACUGGUGAGGCAGCAACAGAGGAUUGAGCAUCA
B3: chr2:130640030:130640031:-_ENSMUSG00000027309_ENSMUST00000044766|mus_mus|FALSE|FALSE (ssRNA)
RNA: GGGAGUUCUACAGUCCGACGAUCAUAGCGGUAGUUGACGGGAUUACAGUACAGAUGGACACUAUCUGAUUUAAUCAAUAAAAUCACGUCAUCUAGAAUUUCUUCAGAAAAUCCCGUUUUCUCAAAAUCAGUGGCAUUCUGACUCAACAGAGGAUUGAGCAUCA
B4: chr7:141450121:141450122:+_ENSG00000106028_ENST00000265304|hu_mus|hu_hu_hu_mus_True|28_38 (ssRNA)
RNA: GGGAGUUCUACAGUCCGACGAUCUCAUCCGUUCUAUGCCUUUUCUUUUGUCUGGUCACUCAGAAAUAUAAUGUUAUCAGCUAUGAUUGUUGUUGCUUGUCGCCUCACAUUAUUUUUAUCCAUGUACUCGCCAUAGUCCACUUUCAACAGAGGAUUGAGCAUCA
B5: chr2:198351390:198351391:-_ENSG00000144381_ENST00000345042|hu_hu|hu_hu_hu_mus_False|28_68 (ssRNA)
RNA: GGGAGUUCUACAGUCCGACGAUCUCAUUCCCACCCUCCACAGAAAGGCUGCUUCUGAACUCUCAUGGUGGUGGCAAGCGCUACAGUCCUGAUGCUCACAGAACAGUAGUAAAAAUGCAGUGAUUUAAGUUGAAAGCAGGACACCAACAGAGGAUUGAGCAUCA
B6: chr3:10015032:10015033:+_ENSMUSG00000027533_ENSMUST00000029046|mus_mus|mus_mus_mus_hu_True|1_108 (ssRNA)
RNA: GGGAGUUCUACAGUCCGACGAUCGUUGUUGCCAUCACAAGUGAUGAUACAAUCUGGCUUGGCCAUUGCGCCCAUUUUUCGCAAAGCUAUUCCCACUCCUAGCUCCUUCAUGUAUUCAUCAAAGCCUUUGCUGUCCAUCAGGCGCAACAGAGGAUUGAGCAUCA
B7: chr19:41288841:41288842:-_ENSMUSG00000025016_ENSMUST00000025989|mus_hu|FALSE|FALSE (ssRNA)
RNA: GGGAGUUCUACAGUCCGACGAUCUAAAUCUCAAAAUGUUUAAUAAAAACAAGUAUCUUCUCCAUUUAACACUUUGCUUUCUAACUGUACAGUAAAUUGCAUUGUAGAGAGUACACUUCUGUCUUCAAACUGUAUCUUCUUUGGCAACAGAGGAUUGAGCAUCA
B8: chr17:49043493:49043494:-_ENSG00000008294_ENST00000510283|hu_mus|motif|central (ssRNA)
RNA: GGGAGUUCUACAGUCCGACGAUCUCGAUUUGUUCAUGAUAUACUGAAAUUUCCUAUUAACACUGGUGCAGUAAACGGGCUCGCUCCUCUGUAUUGUUACCAUAGAACAGAUUGUGUAAUAUAAAGGUAACAGGGGAAAAUGCUCAACAGAGGAUUGAGCAUCA
B9: chr16:45737064:45737065:-_ENSMUSG00000033157_ENSMUST00000066983|mus_mus|FALSE|FALSE (ssRNA)
RNA: GGGAGUUCUACAGUCCGACGAUCAAGUGCAUGAUAUUGUGUCACCAAUCCAUCUGCAGCAGUAGCUAUACCAAUAAGAGCUAUGACUUUUUCCGGCCGUGCAAUUGCAGCAUGCAGCAUGAGCCAUCCACCAAGACUGGAUCCCAACAGAGGAUUGAGCAUCA
B10: chr17:38574076:38574077:-_ENSG00000131747_ENST00000423485|hu_mus|FALSE|FALSE (ssRNA)
RNA: GGGAGUUCUACAGUCCGACGAUCAGCGGUGACAACUCCAUGGUGACGGUCCUGAAGAGGCUCGAGAAUCCGGAAAGCGACAAAACCAGCGGGAAACGCUAGGCGACCCGCGACGCGCGACGCGGGACCUGGACGCUCCCCUCACAACAGAGGAUUGAGCAUCA
B11: chr10:126434673:126434674:+_ENSMUSG00000078429_ENSMUST00000105256|mus_hu|FALSE|FALSE (ssRNA)
RNA: GGGAGUUCUACAGUCCGACGAUCUUUUAAAGCAUUCACUAUUAAGAACCUUUGAAAGCAGGAGACACCCAGAGUGCAGGUCUGAGGGGCUCACUCACUCCUGUUACCAGAGGCAGAAAGCAUGCGCAUUAGGCUGGCAAAUGGCAACAGAGGAUUGAGCAUCA
B12: 76675824_76675944_9205_3pUTR_ENSG00000089916_ENST00000261530|human|control|control (ssRNA)
RNA: GGGAGUUCUACAGUCCGACGAUCAGCCCCUUUUGGGCACAGGCCCCCUUACCAGUCCAAGACCCGGAAGAGGAGAAAGCAGAAGAGGGAACACAGUCCAGGCCAUCUUUUCAUAAAUAGCAACUCAUAAGUAAACAGGAGUGACAACAGAGGAUUGAGCAUCA
B13: chr7:54825262:54825263:-_ENSG00000132432_ENST00000352861|hu_hu|hu_hu_hu_mus_False|58_68 (ssRNA)
RNA: GGGAGUUCUACAGUCCGACGAUCCUGCCGGCUGGGCUCCACAAACUGCAUUACCUGAUCCAUGUUUUACCCAACCGACACCUAAAACGUAGAGACACGUAGCUCAGGAGAGAACCGAGCCCAACGGAACCGGAAGCUGGCAACCAACAGAGGAUUGAGCAUCA
B14: chr22:19452774:19452775:-_ENSG00000070010_ENST00000399523|hu_hu|hu_hu_hu_mus_False|8_48 (ssRNA)
RNA: GGGAGUUCUACAGUCCGACGAUCCUUCUCAUUGUAGUUGAUAGCAAUCACAUCUCCAGUCGUCAGACAGGCGAAGUUUCUCAAUGCGUUUUCUAAUACCGCUUUAGGGUUGGUAAUAUCCAGGAAGUCAGGGCUCUGAGGCUGCAACAGAGGAUUGAGCAUCA
B15: chr1:117910967:117910968:+_ENSG00000198162_ENST00000356554|hu_mus|motif|central (ssRNA)
RNA: GGGAGUUCUACAGUCCGACGAUCUUUUGAAGAGUCUGGAAGGAAGAAGAAUGCCCCAAAACACAGGGUGAUGAAGGCACGGAGGAUGAGGAGAAGGAUAAACUUCUCGGAGAGUCUCAAGGUAGCCCUGUGAUGUGGGAAGGACAACAGAGGAUUGAGCAUCA
B16: chr19:47656230:47656231:+_ENSG00000142230_ENST00000270225|hu_hu|motif|central (ssRNA)
RNA: GGGAGUUCUACAGUCCGACGAUCUAGAUUGGCAAAUGUGUAUCCAUGGUAGCCAAAAACAUCUCCUGUAAAGAACUUGAUGCGGUUUUUGUGACAGAUCUGGUCAACUUUAACUAUGACAUCCCUGGAGCAGCAAGUCAGACACAACAGAGGAUUGAGCAUCA
B17: chr2:47387770:47387771:-_ENSG00000143933_ENST00000272298|hu_mus|hu_hu_hu_mus_True|28_28 (ssRNA)
RNA: GGGAGUUCUACAGUCCGACGAUCAAGGUUUAAGGACAAUGACAGUAAGAUAAGGGAAGAAAACAUGGAGGAAUGAAGUCCUAAUUACUAUACAUGCAUAUUUUUUGGACAGUAGGGGGGGGAACCUUUUACAGAUAAGUUACACAACAGAGGAUUGAGCAUCA
B18: chr7:75932113:75932114:+_ENSG00000106211_ENST00000248553|hu_hu|hu_hu_hu_mus_False|18_58 (ssRNA)
RNA: GGGAGUUCUACAGUCCGACGAUCCUGCGACCACUCAUCGGGCAACCGGGGCACCCCGAAAGCUUGAUCGAAGAGGCGGCUAUGCGGAGGGUACCAGUCCCGGAAUGGUUCCCAGCUGCCCCGCAGGAGCAGCGAGAAGGGCACCAACAGAGGAUUGAGCAUCA
B19: chr1:39494447:39494448:+_ENSG00000168653_ENST00000372967|hu_mus|hu_hu_hu_mus_False|1_1 (ssRNA)
RNA: GGGAGUUCUACAGUCCGACGAUCGCACCGAGCGGCGUUCUUAUAGGGCUGUUCUGCGCUUAGGAACAUAAAGUGCCGGUCCAGGCUGAUGCCCAGCUUUUUCUGUAUGUCAAGGAAAGGCAUGGCUCUGCAGUGCCCCCUUGACAACAGAGGAUUGAGCAUCA
B20: chr6:41757443:41757444:+_ENSG00000214736_ENST00000398881|hu_mus|hu_hu_hu_mus_False|18_18 (ssRNA)
RNA: GGGAGUUCUACAGUCCGACGAUCGAACCGUGCAGAGGCAACAUCUCAGCCGACACUGGGGGAUGGGGGGGCAGUGGGGGGGGGUUCAGGCAAGGAGAGGGAGUCAACUUCAGCUGCUCAAACUUCAGGAUCUUGUGGUCACAGCAACAGAGGAUUGAGCAUCA
B21: chr17:56573269:56573270:-_ENSG00000108389_ENST00000323456|hu_mus|FALSE|FALSE (ssRNA)
RNA: GGGAGUUCUACAGUCCGACGAUCGAGUGAGCUGACAGCUUCCUUCUCUAGAAACUGUUCAGGUGGCUUCCCUAAGCCAUCAGAAGUCCUACCCUGCUCCUCUUGGGCUGAAGGGUCCGGGGCCAGUGCUUCAGUUUCUUCCAGCAACAGAGGAUUGAGCAUCA
B22: chr13:3599227:3599228:-_ENSMUSG00000033799_ENSMUST00000096069|mus_mus|FALSE|FALSE (ssRNA)
RNA: GGGAGUUCUACAGUCCGACGAUCUCAAGUAUGAUUUUAGAAGUGGGUGCUGCCAUCUUUUAGGAUCCUUGUGCUGAAAAGCUACAAUUAUAUAAGGACAGGUCUGUCUGGGUCAUUUAAUAACAGUGUUGCCUGAAAGUUCAUCAACAGAGGAUUGAGCAUCA

The list shows a part of the results.

The target in the experiment is T1, UNK ZnF1-3. As to the kind of experiment: nsRBNS (natural sequence RNA bind-n-seq); RBNS binding buffer (assumed for nsRBNS): 25 mM Tris pH 7.5, 150 mM KCl, 3 mM MgCl2, 0.01% Triton X-100, 500 ug/ml BSA, 20 U/ml SUPERase-In, 4 C; UNK is unkempt and MSI1 is Musashi-1; names of the RNAs are library labels; protein concentration not given here; high values mean tight binding.
Take B1: the binding signal is 0.941 enrichment R.
For the molecule B2, the binding signal stood at 3.23 enrichment R.
For B3 the value was 0.589 enrichment R.
B4 returned a binding signal of 0.403 enrichment R.
For B5, the binding signal was found to be 1.46 enrichment R.
On to B6, for which the binding signal was 0.733 enrichment R.
B7 yielded a binding signal of 0.35 enrichment R.
B8 showed a binding signal of 1.02 enrichment R.
The result for B9 reads 1.25 enrichment R; that for B10, 0.976 enrichment R.
The molecule B11 displayed a binding signal of 1.41 enrichment R.
Turning to B12, the binding signal was 2.65 enrichment R.
B13 came in with a binding signal of 0.732 enrichment R.
The molecule B14 registered a binding signal of 0.775 enrichment R.
In turn, B15 came in with a binding signal of 1.82 enrichment R.
Consider B16, for which the binding signal stood at 0.984 enrichment R.
Regarding B17, the binding signal came out at 1.66 enrichment R.
The molecule B18 showed a binding signal of 0.886 enrichment R.
In turn, B19 yielded a binding signal of 0.775 enrichment R.
Molecule B20 had a binding signal of 3.1 enrichment R.
Take B21: the binding signal stood at 0.851 enrichment R.
Take B22: the binding signal came out at 1.34 enrichment R.

(Values after publication PMC12136788.)
